Results taken from a compilation of properties of binary mixtures (doi:10.1016/j.jct.2008.10.019).
The densities may have been worked out from excess volumes.

Experiment: xn = mol fraction of the nth substance listed
Conditions: 100 kPa

In the case of `CCOS(=O)(=O)[O-].CC[n+]1ccn(C)c1` + CO, the mass density (298.15 K, x1 = 0.0338) is reported as 858.3 kg/m3, the mass density (298.15 K, x1 = 0.0353) is reported as 860.1 kg/m3 and the mass density (298.15 K, x1 = 0.1229) is reported as 979.5 kg/m3. It also gave a mass density (298.15 K, x1 = 0.1234) of 979.8 kg/m3, a mass density (298.15 K, x1 = 0.2522) of 1075.7 kg/m3 and a mass density (298.15 K, x1 = 0.3582) of 1123.2 kg/m3. The mass density (298.15 K, x1 = 0.4449) was 1151 kg/m3, the mass density (298.15 K, x1 = 0.4707) was 1157.9 kg/m3 and the mass density (298.15 K, x1 = 0.5619) was 1178.7 kg/m3. The mass density (298.15 K, x1 = 0.5665) was 1179.4 kg/m3, the mass density (303.15 K, x1 = 0.0338) was 853.7 kg/m3 and the mass density (303.15 K, x1 = 0.0353) was 855.6 kg/m3. It also gave a mass density (303.15 K, x1 = 0.1229) of 975.3 kg/m3, a mass density (303.15 K, x1 = 0.1234) of 975.6 kg/m3 and a mass density (303.15 K, x1 = 0.4707) of 1154.2 kg/m3. The mass density (303.15 K, x1 = 0.5619) was 1174.7 kg/m3, the mass density (303.15 K, x1 = 0.5665) was 1175.5 kg/m3 and the mass density (313.15 K, x1 = 0.0338) was 845.1 kg/m3. For the same molecule, the mass density (313.15 K, x1 = 0.0353) was 847.2 kg/m3, the mass density (313.15 K, x1 = 0.1229) was 967.2 kg/m3 and the mass density (313.15 K, x1 = 0.3582) was 1111.7 kg/m3. For the same molecule, the mass density (313.15 K, x1 = 0.4449) was 1140.6 kg/m3.
